# From article PMC4336329 (PLoS ONE, 2015)
# About 2,200 (0.71%) of roughly 310,000 compounds showed an effect of 50% or more. The effect is printed as a negative number. The list shows a part of the results.
# Molecular target: human ether-à-go-go-related gene (hERG) potassium channel (human, UniProt Q12809)
# Assay: primary screen, population patch clamp on CHO cells stably expressing hERG
# Sequence of human ether-à-go-go-related gene (hERG) potassium channel (Q12809 whole entry, looked up): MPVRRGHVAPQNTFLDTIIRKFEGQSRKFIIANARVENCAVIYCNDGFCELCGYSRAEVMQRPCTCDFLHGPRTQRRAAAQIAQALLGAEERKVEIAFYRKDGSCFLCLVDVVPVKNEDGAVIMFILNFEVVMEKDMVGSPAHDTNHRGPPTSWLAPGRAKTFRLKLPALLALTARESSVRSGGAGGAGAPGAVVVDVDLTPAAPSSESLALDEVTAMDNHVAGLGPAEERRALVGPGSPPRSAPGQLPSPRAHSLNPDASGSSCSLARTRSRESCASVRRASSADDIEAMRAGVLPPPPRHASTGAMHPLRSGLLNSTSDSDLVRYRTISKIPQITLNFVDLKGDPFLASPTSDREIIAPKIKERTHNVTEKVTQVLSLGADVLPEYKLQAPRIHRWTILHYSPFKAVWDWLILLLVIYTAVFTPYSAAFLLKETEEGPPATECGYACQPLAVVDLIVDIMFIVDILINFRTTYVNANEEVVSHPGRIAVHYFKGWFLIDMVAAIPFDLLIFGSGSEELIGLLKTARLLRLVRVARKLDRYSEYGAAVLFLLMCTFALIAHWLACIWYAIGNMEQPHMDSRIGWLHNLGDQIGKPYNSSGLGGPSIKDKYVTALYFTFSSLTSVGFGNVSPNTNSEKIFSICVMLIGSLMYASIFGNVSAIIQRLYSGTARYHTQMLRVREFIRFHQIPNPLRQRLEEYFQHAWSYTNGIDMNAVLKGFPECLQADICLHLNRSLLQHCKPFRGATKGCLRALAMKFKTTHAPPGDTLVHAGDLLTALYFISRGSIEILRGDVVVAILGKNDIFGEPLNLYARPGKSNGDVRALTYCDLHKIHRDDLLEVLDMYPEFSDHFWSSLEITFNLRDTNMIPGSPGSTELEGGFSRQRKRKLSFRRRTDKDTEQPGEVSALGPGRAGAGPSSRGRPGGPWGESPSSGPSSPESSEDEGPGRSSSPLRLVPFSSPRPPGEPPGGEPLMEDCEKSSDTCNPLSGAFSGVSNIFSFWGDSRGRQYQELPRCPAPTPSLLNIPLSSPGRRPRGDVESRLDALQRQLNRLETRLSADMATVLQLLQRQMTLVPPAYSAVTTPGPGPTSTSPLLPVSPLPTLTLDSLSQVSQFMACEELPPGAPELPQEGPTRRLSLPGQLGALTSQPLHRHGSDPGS
row,SMILES,"hERG current change (%, negative = inhibition) at 1uM"
1,C=CCn1c(SCC(=O)NCC2CCCO2)nnc1-c1ccccc1 (stereo not drawn),6.11%
2,CC1C(=NO)C(C)C(c2ccc(N(C)C)cc2)NC1c1ccc(N(C)C)cc1 (stereo not drawn),10.7%
3,CC1=CC(C)(C)N2C(=O)C3(SCC(=O)N3c3ccc(O)cc3)c3cc(C)cc1c32 (stereo not drawn),8.33%
4,CC(C)(C)NC(=O)C(c1cccnc1)N(C(=O)c1ccc(Cl)nc1)C1CCCC1 (stereo not drawn),8.62%
5,CC(=O)c1ccc(NC(=S)N2CCCC(C(F)(F)F)C2)cc1 (stereo not drawn),5.69%
6,C/C(=N\NC(=O)CCCOc1ccc(Cl)cc1C)c1ccc(C)o1,9.02%
7,COc1ccc(C2C(=O)N(C3CCCCC3)CC(=O)N2CCc2ccccc2)cc1OC (stereo not drawn),4.94%
8,CC(NCC(O)COc1ccc2ccccc2c1)c1ccccc1.O=C(O)C(=O)O (stereo not drawn),8.5%
9,CCn1cc(/C=C(\NC(=O)c2ccc(OC)c(OC)c2)C(=O)NCCN2CCOCC2)c2ccccc21,5.82%
10,CC(=O)N1CCN(S(=O)(=O)c2ccc(S(=O)(=O)N3CCCC(C)C3)cc2)CC1 (stereo not drawn),13.2%
11,O=C(CSc1nc(N2CCCCC2)nc(N2CCCCC2)n1)Nc1nccs1,6.21%
12,O=C(C1=C[C@@H](c2coc3ccccc3c2=O)C[C@@H](OCc2ccc(CO)cc2)O1)N1CCN(Cc2ccc3c(c2)OCO3)CC1,-17.3%
13,COc1ccc(CCNc2ncnc3c2nnn3Cc2ccccc2)cc1OC,3.77%
14,COc1cccc(NC(=O)C(C)C)c1,10.8%
15,CSc1nnc(-c2cnccn2)n1C,14%
16,CCCc1cc(=O)[nH]c2nnc(SCC(=O)NCc3ccc4c(c3)OCO4)n12,2.04%
17,COC(=O)C1=C(C)N(CCCC(=O)O)C(=O)NC1c1ccccc1Cl (stereo not drawn),3.9%
18,CC(=O)OCC(=O)NCc1ccc2c(c1)OCO2,-20.7%
19,CCN(CC)S(=O)(=O)c1ccc(N=NC2=C(O)CCCC2=O)cc1,6.42%

row,SMILES,"hERG current change (%, negative = inhibition) at 1uM"
1,CNC(=O)COc1ccc(Nc2nnc(C)c3ccccc23)cc1.Cl,15.3%
2,COc1ccc(C(=O)Nc2ccc(C(=O)N3CCCCC3)cc2)cc1OC,15.3%
3,COc1ccc(CNC(=O)COC(=O)c2ccccc2C(=O)c2ccccc2)cc1,5.51%
4,O=C(NCCC(c1ccccc1)c1ccco1)c1cccs1 (stereo not drawn),11.3%
5,O=C(NCc1nnc2c(C(F)(F)F)cc(Cl)cn12)C1CCCC1,8%
6,CCN(CC)CCN1C(=O)C(O)=C(C(=O)c2cccs2)C1c1ccccn1 (stereo not drawn),8.68%
7,Cc1ccc(NC(=O)COC(=O)c2cc(Cl)ccc2[N+](=O)[O-])cc1,5.25%
8,O=C(CNC(=S)N(Cc1ccccc1F)C1CCCCC1)NCCN1CCOCC1,7.76%
9,Cc1ccnc(NC(=O)CCC(=O)c2cccs2)c1,14.6%
10,O=C(O)c1ccc(N/N=C/C2=Cc3ccccc3OC2)cc1,11.6%
11,CC(=O)/C=C/n1c(=S)oc2ccccc21,11.5%
12,Cc1ccc(S(=O)(=O)N(C)C)cc1NC(=O)COC(=O)CCC1CCCC1,6.73%
13,Cc1ccc(-c2cc(C(=O)NN)n[nH]2)o1,12.4%
14,CC(C)(C)c1ccc(CCC2OCC(C[N+]3(C)CCOCC3)O2)cc1.[I-] (stereo not drawn),12.7%
15,CCCOc1ccc(/C=N/NC(=O)CN(c2ccc(OCC)cc2)S(C)(=O)=O)cc1,-6.44%
16,COc1ccc(S(=O)(=O)N2CCCCCC2)cc1C(=O)NCc1ccc(C)cc1,3.78%
17,Cc1c(NC(=O)C(C)OC(=O)c2ccc(NC(=O)CC#N)cc2)c(=O)n(-c2ccccc2)n1C (stereo not drawn),6.67%
18,COC(=O)c1cc(Cl)c(NC(=O)/C=C/c2ccc(Cl)cc2)cc1OC,1.01%
19,CC(Sc1nncn1C)C(=O)Nc1ccc(N2CCCCC2)cc1 (stereo not drawn),12%

row,SMILES,"hERG current change (%, negative = inhibition) at 1uM"
1,CN1CCCN(Cc2nc(-c3cccc(C(F)(F)F)c3)no2)CC1,-15.4%
2,COc1ccccc1NC(=O)Nc1nn(C)c2cccc(OC)c12,9.38%
3,O=C(Nc1ccc(F)cc1)Nc1cccnc1,1.11%
4,COc1ccc2c(c1)sc(=N)n2CC(=O)Nc1cc(C)cc(C)c1,6.22%
5,CC(=O)Nc1ccc(NC(=O)C(C)OC(=O)C(C)SCC(=O)Nc2ccc(C)cc2)cc1 (stereo not drawn),15.6%
6,Cc1ccc(-c2cnc3n2CCCCC3)cc1,6.39%
7,O=C(CCNC(=O)c1ccccc1Cl)Nc1nc(-c2ccccc2Cl)cs1,-11%
8,Cc1cccc(N2CCN(C(=O)NC3CCCCC3)CC2)c1C,8.24%
9,CC(O)(CS(=O)(=O)c1ccc(Br)cc1)c1ccccc1 (stereo not drawn),20.5%
10,NS(=O)(=O)c1ccc(CNC(=S)NC2CC2)cc1,2.93%
11,O=C(NNC(=O)C1CCCO1)c1ccc(Br)cc1 (stereo not drawn),8.75%
12,CC(=O)c1ccccc1NC(=O)COC(=O)CCCN1C(=O)c2cccc3cccc(c23)C1=O,9.14%
13,COc1cc(-c2nnc3sc(-c4cccs4)nn23)cc(OC)c1OC,2.06%
14,O=C(CSc1nc(O)c(-c2ccccc2)c(=O)[nH]1)N1CCOCC1,8.84%
15,COc1ccc(NC(=O)C(=O)NNC(=O)C(C)Oc2ccc(Cl)cc2Cl)cc1 (stereo not drawn),14.2%
16,Cc1ccc(C(=O)OCC(=O)N2CCOCC2)cc1,11.9%
17,O=C1/C(=C\c2ccncc2)SC(=S)N1C1CCCCC1,1.21%
18,C/C(=N\NC(=O)C1(C)CC1(Br)Br)c1cccc(NC(=O)c2ccc(C)o2)c1 (stereo not drawn),11.8%
19,CC(C)n1c(C(F)(F)F)nc2cc(C(=O)N3CCC(O)CC3)ccc21,17.1%
